{"source": "PubChem BioAssay AID1508623", "about": "(National Center for Advancing Translational Sciences (NCATS), 2021)", "note": "Among all 48,000 compounds or so, about 450 (0.94%) were called active. Not shown: some 19% with an inconclusive outcome. The call rests on the fitted dose curve; in most records, active means well fitted inhibition curve with a large enough effect; inconclusive means small, poorly fitted or top-dose-only effect; inactive means no such curve, though single readings can be large or run the other way. This is one part of the list."}
{"assay": "Primary qHTS for Identification of Small Molecule Inhibitors of Huntingtin Promoter Activity; further: nearly all actives have a fitted effect of over 50% in size", "conditions": "HEK293 HTT promoter firefly luciferase reporter (activity 0% = vehicle and -100% = no light), 24 h; series mostly up to 57.5 µM; activity change, negative = inhibition: at the top concentration", "summary_of_the_method": "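Luminescence was read after Dual-Glo reagent and a 10 min room-temperature incubation. Values were normalized to vehicle (0% activity) and zero RLU (-100% activity). Reporter HEK293 cells had been exposed to compounds (up to 57.5 uM final) for 24 h.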"}
{"smiles": "O=C(O)CN(CCN(CC(=O)O)CC(=O)O)CCN(CC(=O)O)CC(=O)O", "activity change, negative = inhibition": "inactive: -7.61% [at 25.2 µM]"}
{"smiles": "CCc1ccc(NCc2cc3cc4c(cc3n(CC(=O)Nc3ccc(OC)cc3)c2=O)OCO4)cc1", "activity change, negative = inhibition": "inactive: -20.4%"}
{"smiles": "CCc1ccc(C2c3c(-c4cc(C)ccc4O)n[nH]c3C(=O)N2CCO)cc1", "note": "(configuration not stated)", "activity change, negative = inhibition": "inactive: -16.7%"}
{"smiles": "Cn1c(SCC(=O)N2CCOCC2)ncc(C(=O)Nc2ccc(F)cc2)c1=O", "activity change, negative = inhibition": "inactive: 0.0161%"}
{"smiles": "CCCSc1nc2sc3c(c2c(=O)n1-c1ccc(C)cc1)CCCC3", "activity change, negative = inhibition": "inactive: -9%"}
{"smiles": "CCOC(=O)c1c(S(=O)(=O)NCC(=O)Nc2cccc(SC)c2)c(C)n(C)c1C", "activity change, negative = inhibition": "inactive: 1.48%"}
{"smiles": "COc1ccc(NC(=O)CCCS(=O)(=O)c2nc(-c3ccccc3OC)cc(C(F)(F)F)n2)c(OC)c1", "activity change, negative = inhibition": "inactive: 15.2%"}
{"smiles": "CC1=C(c2ccc(C(C)C)cc2)S(=O)(=O)NC1=NCc1ccc(OC(C)C)cc1", "activity change, negative = inhibition": "inactive: -19.6%"}
{"smiles": "Cc1ccc(CNC(=O)C2CCCN(c3nc4ccccc4n4cccc34)C2)cc1", "note": "(configuration not stated)", "activity change, negative = inhibition": "inactive: -24.2%"}
{"smiles": "COc1ccc(C(C)NC(=O)CN(c2cc(OC)ccc2OC)S(=O)(=O)c2ccccc2)cc1", "note": "(configuration not stated)", "activity change, negative = inhibition": "inactive: -16.8%"}
{"smiles": "CC1CCN(CCCNC(=O)CN2C(=O)CSc3ccc(S(=O)(=O)N4CCCCC4)cc32)CC1", "activity change, negative = inhibition": "inactive: -0.438%"}
{"smiles": "Brc1cccc(-c2nn(-c3ccccc3)c3c2cnc2cc4c(cc23)OCO4)c1", "activity change, negative = inhibition": "inactive: -4.58%"}
{"smiles": "CCc1cccc(C)c1NC(=O)C1CCN(S(=O)(=O)c2cc(Br)cc3c2N(C(C)=O)CC3)CC1", "activity change, negative = inhibition": "inactive: 12.7%"}
{"smiles": "Cc1ccc(C)c(CN2CCC(CNC(=O)C(CC(C)C)N3Cc4ccccc4C3=O)CC2)c1", "note": "(configuration not stated)", "activity change, negative = inhibition": "inactive: -18.1%"}
{"smiles": "COCCn1c(CNC(=O)c2ccccc2C)nc2cccnc21", "activity change, negative = inhibition": "inactive: -0.603%"}
{"smiles": "COc1ccc(NC(=O)Nc2cccc(-c3noc(C)n3)c2)cc1", "activity change, negative = inhibition": "inactive: -23.2%"}
{"smiles": "COc1cccc(-n2ccnc2SCC(=O)Nc2cccc3ccccc23)c1", "activity change, negative = inhibition": "inactive: -28.9%"}
{"smiles": "COc1ccc(-n2c(CC3C(=O)Nc4ccc(C)cc43)nc3ccccc3c2=O)cc1", "note": "(configuration not stated)", "activity change, negative = inhibition": "inactive: -5.38%"}
{"smiles": "O=C(NCc1ccccc1Cl)c1ccc2c(c1)ncn2-c1cccc(F)c1", "activity change, negative = inhibition": "inactive: -0.32%"}
{"smiles": "O=c1c2c3c(sc2nnn1CCCCOc1ccc(Cl)cc1)CCCC3", "activity change, negative = inhibition": "inactive: 7.33%"}
{"smiles": "COc1cc(-c2noc(-c3cc4cccc(C)c4oc3=O)n2)cc(OC)c1OC", "activity change, negative = inhibition": "inactive: -7.13%"}
{"smiles": "CCOc1ccccc1-n1c(N)c(C(=O)OC)c2nc3ccccc3nc21", "activity change, negative = inhibition": "inactive: -18.2%"}
{"smiles": "COc1ccc(-c2nsc(NC(=O)c3oc4ccc(Cl)cc4c3C)n2)cc1", "activity change, negative = inhibition": "inactive: -3.16%"}
{"smiles": "O=C(Nc1ccc(F)cc1)c1nc(SCc2ccccc2F)ncc1Cl", "activity change, negative = inhibition": "inactive: -12.8%"}
{"smiles": "N#C/C(=C/c1ccc(O)cc1)c1nc(-c2ccc(-c3ccccc3)cc2)cs1", "activity change, negative = inhibition": "inactive: 3.87%"}
{"smiles": "Cc1ccc(OCCn2c(CNc3ccccc3C)nc3ccccc32)cc1", "activity change, negative = inhibition": "inactive: 16.5%"}
{"smiles": "Cc1cc(NC(=O)c2cnn(-c3ccccc3)c2-n2cccc2)ccc1Br", "activity change, negative = inhibition": "inactive: -5.62%"}
{"smiles": "COc1cccc(-c2nc3c(C#N)c[nH]n3c2NC2CCCCC2)c1", "activity change, negative = inhibition": "inactive: 9.53%"}
{"smiles": "COc1cccc(CNC(=O)CN(c2ccc(C)cc2)S(=O)(=O)N(C)C)c1OC", "activity change, negative = inhibition": "inactive: -5.34%"}
{"smiles": "CCc1cccc(NC(=O)Cn2c(=O)n(CC3CCC(C(=O)NC)CC3)c(=O)c3sccc32)c1", "note": "(configuration not stated)", "activity change, negative = inhibition": "inactive: -20.5%"}
{"smiles": "N#CC1=C(N)N(c2ccc(Cl)cc2)C2=C(C(=O)CCC2)C1c1cc(CN2CCOCC2)cs1", "note": "(configuration not stated)", "activity change, negative = inhibition": "inactive: 0.494%"}
{"smiles": "O=C(NC1CCCCC1)c1ccc2c(c1)N(Cc1ccc(F)cc1)C(=O)c1ccccc1S2(=O)=O", "activity change, negative = inhibition": "inactive: -16.9%"}
{"smiles": "COc1cc(C(=O)Nc2cc(C)c(O)c(-c3nc4cc(Cl)ccc4o3)c2)cc(OC)c1OC", "activity change, negative = inhibition": "inactive: -10.8%"}
{"smiles": "CCN(CC)C(=O)c1sc2c(c1C)c(=O)n(-c1ccccc1)c(=O)n2CC(=O)N(CC)c1cccc(C)c1", "activity change, negative = inhibition": "inactive: 0%"}
{"smiles": "Cc1cn2c(=O)cc(COC(=O)COc3ccc(C)c(C)c3)nc2s1", "activity change, negative = inhibition": "inactive: -7.37%"}
{"smiles": "CCCOc1ccc(C(=O)N(Cc2ccc(Cl)cc2)Cc2ccco2)cc1", "activity change, negative = inhibition": "inactive: -28.7%"}
{"smiles": "C=C1C(=CC=C2CCC[C@]3(C)[C@@H]([C@H](C)CCCC(C)(C)O)CC[C@@H]23)C[C@@H](O)C[C@@H]1O", "activity change, negative = inhibition": "inactive: 18.7%"}
{"smiles": "CC(CCc1ccc2c(c1)OCO2)NN", "note": "(configuration not stated)", "activity change, negative = inhibition": "inactive: 5.9%"}
{"smiles": "Cc1ccc(CNC(=O)c2ccc3c(c2)NC(=O)C(CS(=O)(=O)Cc2cccc(C)c2)N3)cc1", "note": "(configuration not stated)", "activity change, negative = inhibition": "inactive: -19.9%"}
{"smiles": "COc1cc(NC(=O)CCS(=O)(=O)c2ccc(Br)cc2)cc(OC)c1", "activity change, negative = inhibition": "inactive: -15.5%"}
{"smiles": "CN(C(=O)CSc1nncn2c1cc1occc12)c1ccccc1", "activity change, negative = inhibition": "inactive: 4.66%"}
{"smiles": "CCCCN(C)C(=O)CN1C(=O)c2cccnc2Oc2ccc(Cl)cc21", "activity change, negative = inhibition": "inactive: 3.55%"}
{"smiles": "CC(C)c1ccc(-c2noc(SCC(=O)N3CCN(c4ccccc4F)CC3)n2)cc1", "activity change, negative = inhibition": "inactive: -1.73%"}
{"smiles": "O=C(NCc1cccs1)c1ccc2c(c1)sc1nc(-c3ccccc3)cn12", "activity change, negative = inhibition": "inactive: 20.9%"}
{"smiles": "COc1ccc(Cn2ccn(CC(=O)Nc3cc(C)ccc3C)c(=O)c2=O)cc1", "activity change, negative = inhibition": "inactive: -13.4%"}
{"smiles": "Cc1ccc(NC(=O)Cn2c(=O)ccc3cc(S(=O)(=O)N4CCCC4)ccc32)cc1C", "activity change, negative = inhibition": "inactive: -18.8%"}
{"smiles": "Cc1cc2nn(-c3ccc(F)cc3)nc2cc1NC(=O)c1ccc(C(C)(C)C)cc1", "activity change, negative = inhibition": "inactive: -1.91%"}
{"smiles": "COc1cc(CN(C(=O)c2ccccc2)c2ccccn2)cc(OC)c1OC", "activity change, negative = inhibition": "inactive: -13.8%"}
{"smiles": "COc1ccc(-c2cn3cccnc3n2)cc1NC(=O)c1ccccc1C(F)(F)F", "activity change, negative = inhibition": "inactive: -0.732%"}
{"smiles": "COc1ccc2c(c1)c(=O)c(C(=O)c1ccc(F)cc1)cn2CC(=O)Nc1ccc2c(c1)OCCO2", "activity change, negative = inhibition": "inactive: -22.9%"}
{"smiles": "COc1ccc(-c2oc3ncn4nc(-c5ccccc5OC)nc4c3c2-c2ccc(OC)cc2)cc1", "activity change, negative = inhibition": "inactive: -18.6%"}
{"smiles": "CCOc1ccc(-n2c(-c3ccc(Br)cc3)cc3c2CC(C)(C)CC3=O)cc1", "activity change, negative = inhibition": "inactive: -8.55%"}
{"smiles": "CCOC(=O)c1cc(-c2ccc(F)cc2)n(CCC(=O)Nc2nc3cc(C)c(C)cc3s2)c1C", "activity change, negative = inhibition": "inactive: -6.16%"}
{"smiles": "Cc1nnc2c3ccccc3nc(Nc3ccc(F)cc3Cl)n12", "activity change, negative = inhibition": "inactive: 13.4%"}
{"smiles": "Cc1ccc2c(CC(=O)Nc3nnc(C(C)C)s3)coc2c1C", "activity change, negative = inhibition": "inactive: -1.26%"}
{"smiles": "COc1cc(OC)cc(-n2c(=O)c3sccc3n(Cc3cc(=O)n4c(C)cccc4n3)c2=O)c1", "activity change, negative = inhibition": "inactive: -7.44%"}
{"smiles": "OCCN1CCN(c2ncnc3c2cnn3-c2cccc(Cl)c2)CC1", "activity change, negative = inhibition": "inactive: 19.6%"}
{"smiles": "Cc1ccc(Cl)cc1NC(=O)Cn1nnc2sc3c(c2c1=O)CCC(C(C)(C)C)C3", "note": "(configuration not stated)", "activity change, negative = inhibition": "inactive: -27.2%"}
{"smiles": "COc1ccc(CCNc2ncnc3c2cnn3-c2ccc(F)cc2)cc1", "activity change, negative = inhibition": "inactive: -6.45%"}
{"smiles": "Brc1ccc(CN2CCc3nc(Nc4ccccc4)ncc3C2)s1", "activity change, negative = inhibition": "inactive: -23.5%"}
{"smiles": "COc1ccc(OC)c(CNC(=O)c2cc3c(=O)oc4ccc(C)cc4c3s2)c1", "activity change, negative = inhibition": "inactive: -3.08%"}
{"smiles": "COc1ccc(N(Cc2cc3cc(OC)ccc3[nH]c2=O)C(=O)c2cccc(Cl)c2)cc1", "activity change, negative = inhibition": "inactive: 1.28%"}
